Experimental data taken from the supplement of paper PMC11417369.
± gives the standard deviation of the averaged measurements. This is one part of the list.

What follows are sequences tested on PfAP2-EXP AP2 domain (GST-tagged) (assay: gcPBM binding intensity (ln(normalized median fluorescence intensity)); higher = stronger DNA binding).
In short: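 In this array assay, P. falciparum DNA-binding domains with a GST tag, expressed in E. coli, were applied for 1 h to primer-extended double-stranded 36-bp intergenic genomic probes and negative controls on an Agilent 4 × 180k array. Bound protein was visualised with Alexa488 anti-GST antibody at 488 nm. Binding intensity is the highest Masliner-normalised natural-log median intensity across replicate spots of either probe orientation.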

Sequence | gcPBM binding intensity (ln)
GATTAATACACATTCTTCCGACATAATAAGAAAAAG [GTGCAC_negctrl_site7] | 8.55 ± 0.47
CTTATATTTAGACACACACACAATAAAATGAAAAAA [CACACA_site1031] | 8.76 ± 0.69
AACCATGTTAACAACGCATGTATATCTATGGGTTTA [TGCATGCA_site419] | 8.33 ± 0.35
AATACATGCTTATTTTAACACACAAATGGTAGTAAT [CACACA_site8154] | 8.49 ± 0.38
GATTATTTTATAAGTACACACATTTATCTATAATAA [CACACA_site7256] | 8.42 ± 0.18
TTTTTTAAATGTCATTGTACATAATTCAATATATAA [XGTACX_site5] | 8.24 ± 0.13
TGACTTTTTTTATGTTGTACTTATTATAAAAAAAAT [XGTACX_site7736] | 8.77 ± 0.49
AGCTAATATATCTTATATTCATATAAAAAAATATAT [CACACA_negctrl_site1786] | 8.19 ± 0.35
ATTAAAACACAATATTCACACATGTATATTATATAT [CACACA_site5191] | 8.39 ± 0.33
TTAACATACACTCTAGTGCATATATATAACAAAATA [GTGCAC_site9724] | 8.72 ± 0.14
ATCATATTTATATTGGTGCATTATGCATGAAATTTA [GTGCAC_site9571] | 8.92 ± 0.11
AATTTAAATCTTCAAAGTACTAAAAAAAAAAATAAT [XGTACX_site8566] | 8.62 ± 0.52
AAACGATTAATGTGTACACACATAGTTATAAACATA [CACACA_site7073] | 8.59 ± 0.24
TTACACATGTATTTGGTGCATGTTGTTAACAAAATA | 8.72 ± 0.13
CGCCCACAGATATATACACACATATATAAATAAATA [CACACA_site6877] | 8.6 ± 0.66
TATGCTTTGATGAAGACACACATATAGAAGCGTATT [CACACA_site1925] | 8.53 ± 0.41
TATGTTATAAAATATATATTATAATATGTATATATA [XGTACX_negctrl_site233] | 8.19 ± 0.45
TACTTTTATAAAAATTGTACAAAAAAAAAAAAAAAA [XGTACX_site2266] | 8.2 ± 0.49
AAAACTATTTCTTTCAGTACATATTTGGACTTATAT [XGTACX_site4977] | 8.45 ± 0.43
ATATAAATTTAATACACACCCAAAAAAAAAAAAAAA [CACACA_site3750] | 8.22 ± 0.42
ATAATAAGCAGACACACACACACAAAAAAAAAAAAA [CACACA_site6477] | 8.32 ± 0.74
TAAATAAATACATACACACACATACAGATATATATA [CACACA_site5690] | 8.72 ± 0.47

Sequence | gcPBM binding intensity (ln)
AAACATTTACTATATTGTACTTAAGATCTTATCGTA [XGTACX_site3919] | 8.44 ± 0.31
TAATATGACATAAGGGGTACTATATATATATATATT [XGTACX_site386] | 8.7 ± 0.45
TATTTTAACATGTTTTCAAAAATAAAACATATAAAT [CACACA_negctrl_site1598] | 8.11 ± 0.4
GAACTTTACAACCCAACACACAAAAAAGAAAAGAAA [CACACA_site1717] | 8.7 ± 0.56
AATAGGAAAAGAAAAGCACACACATAAATAAATATA [CACACA_site8062] | 8.88 ± 0.49
ATATGTTCATTTAAAAGTACTTAATATAACATTTTT [XGTACX_site3332] | 8.39 ± 0.34
ATTGGTGTATGTTTATGTACTTATCACAATTATGAA [XGTACX_site7055] | 8.65 ± 0.41
TCAAATTACTAAAATACACACATATTATAGATATAT [CACACA_site7233] | 8.21 ± 0.49
TGTATATATAATAAAACACACATTTTTAATGTGCTC [CACACA_site1437] | 8.01 ± 0.3
GTTTTATAAAAAGGCGCACACATATACATAAATATA [CACACA_site1864] | 9.04 ± 0.4
GATAAAGTACTTTATACACACAAATATTTATATATA [CACACA_site3974] | 8.6 ± 0.48
AAAAAGAAAATATATACACACCAAAAAAAAAAAAAA [CACACA_site5698] | 8.15 ± 0.65
TAAATACAAAAATGCACACGAAAAGTAATATATATA [CACACA_site6151] | 9.18 ± 0.22
TTAATCCACAGACACACACACACAAAATAAAATACA [CACACA_site244] | 8.62 ± 0.47
TTATTTATGAAGTATACACACAATATATATATATAT [CACACA_site1248] | 9.9 ± 0.33
TAGTTCTTTTAATTTAGTATTATACAATATTGGAAA [CACACA_negctrl_site521] | 8.32 ± 0.45
AATATATTAAATATTACACACATACATTTAGTGTAA [CACACA_site5145] | 8.32 ± 0.4
TATATATTAAACTTTGCACACATAATTTAACTACAA [CACACA_site3440] | 8.54 ± 0.16
ATTAATAATATTACATGTACATAATATAATTGAAAA [XGTACX_site5084] | 8.41 ± 0.33
TTTATTTTATTCACTATCATAAGCAAAACTTAAACA [GTGCAC_negctrl_site287] | 8.29 ± 0.35
ATTTTTTTTTTTTTTTTTTTTTTTTTTTTTGTTGTT [CACACA_negctrl_site1313] | 7.92 ± 0.55
TAGTTAATATGATTATGTACATATATATATTAATTT [XGTACX_site1750] | 8.22 ± 0.27

Sequence | gcPBM binding intensity (ln)
TTAGATATTATTATATGTACATATTATATGTATTAT [XGTACX_site3836] | 8.48 ± 0.35
ATAATATATTTATAAACACACAAAAAAAGTTATATA [CACACA_site6831] | 8.6 ± 0.47
TGTATATGAAAAAATAGTACTCATATAAATATCTTT [XGTACX_site6542] | 8.36 ± 0.45
TTTTTTATTCCATAATATAATATGTTTTGAAATTTG [GTGCAC_negctrl_site440] | 8.27 ± 0.33
ATATACATATCAATGTAATATTATATACTTTTTTAG [CACACA_negctrl_site816] | 8.14 ± 0.33
ATATAATTATATTCCATACACACATATATTTAAAGG [CACACA_site2958] | 8.54 ± 0.41
AAAAAAATAAATAAATGTACATATATAAAACATTGT [XGTACX_site2136] | 8.87 ± 0.33
AAACGAGAACATAATAAATACATAAATAAATAAATA [GTGCAC_negctrl_site433] | 8.81 ± 0.23
TATATACACGCACATACACACAAATAAAAAAACACC [CACACA_site7578] | 9.26 ± 0.26
TGTGTTGTAATTAAAACACACATGAAAAAATTAAAA [CACACA_site51] | 8.59 ± 0.53
GTATTATTCTATAGAAGTACAGTATATTATTATTTA [XGTACX_site5073] | 8.47 ± 0.16
TACAACAAGTAATGGTGTACATTATATTATGTAATA [XGTACX_site1194] | 8.39 ± 0.3
TATAACAATTTTTATGCATGCGACTATAATATTTTT [TGCATGCA_site508] | 9.32 ± 0.27
TACATATTGAATAAGACACACATATATATATATATA [CACACA_site1878] | 10.1 ± 0.4
TAAGGATTGGTATAAAGTACAGGAGTAAATTGAAAA [XGTACX_site8525] | 8.84 ± 0.41
ATATTTTTTTTTTATTGTACCCTCATAAAAGAAAAG [XGTACX_site773] | 8.52 ± 0.4
CATACACATATATATTGTACACATATATGTATGTAT [XGTACX_site4030] | 8.45 ± 0.28
AATAAATATAAATACACACCCATATAAATATAAATA [CACACA_site7264] | 8.64 ± 0.51
ACAAAGATAAAACATAAAATATATCAAACATAAAAT [XGTACX_negctrl_site198] | 8.65 ± 0.28
AAAAAAAATACATGTTGTACGGTACAAATATAAAGT [XGTACX_site2863] | 9.16 ± 0.2
ATATATCTTCTTTGCACACTTAAAGGGAAGTGATAA [CACACA_site342] | 8.66 ± 0.18
AAAATAATAAAAAAAAAAAAAAAAAAAAAAAAGTAT [TGCATGCA_negctrl_site193] | 8.26 ± 0.62

Sequence | gcPBM binding intensity (ln)
AAATAAAATAAAACAACACACACGAATGTATAAATA [CACACA_site885] | 8.62 ± 0.45
AAAAAAATAATAAAATGTACAAATAAACACATAAAG [XGTACX_site5102] | 8.93 ± 0.41
TAATGTATCTAAAATTGTACAAATATAAATCTAAAT [XGTACX_site1197] | 8.48 ± 0.44
CGCGCCCAGAAACACACACACACACCGATATATATA [CACACA_site5250] | 8.66 ± 0.4
AGCAGGATTAAAAAAAGTACAAGAATTAATATTTAA [XGTACX_site3413] | 8.32 ± 0.5
TATATCTATAATATTACACACATATATTTATATTTT [CACACA_site7595] | 8.34 ± 0.3
ATTTTTTATTGTTATAAAAAAAAAATTAAACAATTA [CACACA_negctrl_site1077] | 8.19 ± 0.46
AATTATTATCCCCTCACACACAAAAATAAAAAGAAT [CACACA_site2885] | 9.06 ± 0.66
AAATTAAAGGCATAAAAGAAAATATTTAATAAAAAA [CACACA_negctrl_site1689] | 8.65 ± 0.4
AAAGAAAATAACAAAATTTTGAAAACATCACATTCG [CACACA_negctrl_site89] | 8.64 ± 0.46
ACCAGTTCTTAATACAAATATGTACATATATATATA [GTGCAC_negctrl_site56] | 9.74 ± 0.14
TTTTTTTTAATTGTGATACGTATATTATTTAATGAT [CACACA_negctrl_site38] | 8.49 ± 0.52
ATATATAATAAACAGGTGCATTGTTTTATTTTGTAT | 8.67 ± 0.057
AAATTTAGGAACATTATATATATATATATATATATA [CACACA_negctrl_site862] | 10.1 ± 0.62
TATTCGTCTTTTTTCTCACACACCCTTTTTATTAAA [CACACA_site2508] | 9.06 ± 0.54
TATTTCATCTTATTTTAGGAAAAACTAATATATAAG [CACACA_negctrl_site1823] | 7.96 ± 0.44
TAAAAATAAAGAAAATGTACATAAATAATAATACAT [XGTACX_site2278] | 8.76 ± 0.25
GAACATTTGAAATATGCACACATGTATAAACCTACA [CACACA_site2654] | 8.61 ± 0.34
CAAAAAAAGGAAAAGATACACACCGTAAATTAAAAT [CACACA_site3612] | 8.7 ± 0.67
TGTGCATAATTTTGTGCACACCACGCTAATAATTTT [CACACA_site2915] | 8.73 ± 0.014
GGAATAAATAATATTATACACACGTATATTATTATA [CACACA_site2435] | 8.24 ± 0.33
AAGCTTTCATAAAGATGTACTTTTTAAAAATAATCT [XGTACX_site5725] | 8.28 ± 0.31
